Data as given in PubChem BioAssay AID995 (National Center for Advancing Translational Sciences (NCATS), 2007).
Out of some 72,000 compounds screened, about 710 (0.99%) were called active. Inconclusive means that the source gave no clear call. Such entries were picked first, then a sample of the others. The call rests on the fitted dose curve; in most records, active means well fitted inhibition curve with a large enough effect; inconclusive means small, poorly fitted or top-dose-only effect; inactive means no such curve, though single readings can be large or run the other way. No potency is given beside an inconclusive call; the fits are too rough.

Test: qHTS Assay for Inhibitors of the ERK Signaling Pathway using a Homogeneous Screening Assay; further: nearly all actives have a fitted effect of over 55% in size
Conditions: HEK293-V1b, vasopressin-stimulated pERK AlphaScreen; activity, negative = inhibition: at 57.5 µM (top of the series) unless noted
Outline: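 HEK293 cells stably expressing V1b receptor, preincubated 30 min at 37 °C with compound, then stimulated 5 min with 25 nM vasopressin. Phospho-ERK by AlphaScreen SureFire after 5 h RT; normalized to DMSO and vasopressin; AC50 by Hill fit.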
On the % scale 0 is the no-effect control and ±100 the full control effect; potency means the concentration at half of the fitted maximal effect; tags describe the fitted curve by direction and shape.

For N=c1c(C(=O)NCc2ccco2)cc2c(=O)n3ccccc3nc2n1Cc1ccc(Cl)cc1, which “activity, negative = inhibition” value is on record?
The value was inactive: 5.81%.

With Cc1nn(-c2ccccc2)c2c1C(c1cccnc1)N1C=C(S(=O)(=O)N3CCCCC3)C=CC1=N2 (configuration not stated) as the compound, how does the “activity, negative = inhibition” value read?
Its value is inactive: -1.82%.

With N#C/C(C(N)=O)=c1/ccc2c(c1)N1C3=C(CCCC3)CC3CCCCC31N=2 (configuration not stated) as the compound, how does the Potency read?
Its Potency is inconclusive [inhibitor, full curve].

For CCc1c(C)c2ccc(OCC(=O)N(C)C)c(C)c2oc1=O, which “activity, negative = inhibition” value is on record?
The value was inactive: -25.2%.

Which “activity, negative = inhibition” value does the source give for Cc1ccnc(NC(=O)C2CCN(S(=O)(=O)c3cccc4nsnc34)CC2)c1 here?
Its value is inactive: 3.8%.

For O=C(CC1c2ccccc2Oc2ccccc21)N1CCN(c2ccccn2)CC1, which Potency is on record?
The Potency was inconclusive [inhibitor, single point].

With COc1ccc2[nH]cc(CCNc3ccnc(-c4cccc(NS(C)(=O)=O)c4)n3)c2c1 as the compound, how does the Potency read?
The Potency was active: 12.6 µM.

For c1coc(CNc2nc(-c3ccncc3)cs2)c1, which Potency is on record?
The Potency was inconclusive [inhibitor, partial curve].

With CCOC(=O)CCNC(=O)Nc1ccc2nc(C)n(Cc3ccc(Cl)cc3)c(=O)c2c1 as the compound, how does the Potency read?
The Potency was inconclusive [inhibitor, partial curve].

With Cc1cccc(-c2nnc(SCC#N)n2-c2ccccc2)c1 as the compound, how does the Potency read?
Its Potency is inconclusive [inhibitor, partial curve].

For Cc1cc(C2CCCCC2)n(O)c(=O)c1, which Potency is on record?
Its Potency is inconclusive [inhibitor, partial curve].

With CCOC(=O)c1ccc(-c2ccc(C(=O)Nc3cccnc3)o2)cc1 as the compound, how does the Potency read?
Its Potency is inconclusive [inhibitor, partial curve].

For CO[C@@H]1COC(=O)CC=C[C@@H](C)[C@@H]2C=C[C@H](O)[C@@H](COC(=O)[C@H](C)NC(=O)CC=C[C@H]1C)O2, which activity, negative = inhibition is on record?
The activity, negative = inhibition was inactive: 12.7% [at 11.5 µM].

Which Potency does the source give for O=C(COC(=O)c1ccccc1NC(=O)c1ccco1)Nc1ccc2c(c1)OCO2 here?
Its Potency is inconclusive [inhibitor, partial curve].

Which Potency does the source give for CC(C)(C)C(=O)COC(=O)c1ccc(O)cc1 here?
Its Potency is inconclusive [inhibitor, partial curve].

With COc1cccc(-n2c(SCC(N)=O)nc3c([nH]c4ccccc43)c2=O)c1 as the compound, how does the Potency read?
Its Potency is inconclusive [inhibitor, partial curve].

For O=C1NCN(c2ccccc2)C12CCN(CCCC(c1ccc(F)cc1)c1ccc(F)cc1)CC2, which Potency is on record?
The Potency was inconclusive [inhibitor, partial curve].

With CC[C@@H]1OC(=O)[C@@H](C)[C@H](O[C@H]2C[C@@](C)(OC)[C@@H](O)[C@H](C)O2)C(C)[C@H](O[C@H]2O[C@@H](C)C[C@@H](N(C)C)[C@@H]2O)[C@@](C)(O)C[C@H](C)C(=O)[C@@H](C)[C@H](O)[C@@]1(C)O (some centres not stated) as the compound, how does the “activity, negative = inhibition” value read?
Its value is inactive: 0.199%.

Which “activity, negative = inhibition” value does the source give for Cc1cc(Cl)c(S(=O)(=O)Nc2ccc3c(c2)OCO3)cc1OCC(N)=O here?
The value was inactive: -19.6%.

With O=C(C1CCCN(S(=O)(=O)c2ccccc2)C1)N1CCN(c2ncccn2)CC1 (configuration not stated) as the compound, how does the “activity, negative = inhibition” value read?
The value was inactive: -11.6%.

Which Potency does the source give for O=C(c1cccc(C(=O)N2CCN(c3ccccc3F)CC2)c1)N1CCN(c2ccccc2F)CC1 here?
The Potency was active: 15.8 µM.

For CCC(Sc1nc2ccccc2s1)C(=O)Nc1nnc(C)s1 (configuration not stated), which Potency is on record?
The Potency was inconclusive [inhibitor, single point].

For Cc1cc(Cl)ccc1OCC(=O)Nc1ccccc1N1CCOCC1, which Potency is on record?
Its Potency is inconclusive [inhibitor, single point].

Which Potency does the source give for CCn1c(SCC(=O)c2ccccc2)nnc1-c1cc2cc(Br)ccc2o1 here?
The Potency was inconclusive [inhibitor, partial curve].

For N#Cc1cccc(-c2nc(NCCN3CCOCC3)c3ccccc3n2)c1, which Potency is on record?
The Potency was inconclusive [inhibitor, full curve, poor fit].

Which Potency does the source give for O=C(CCC1CCCC1)N1CCN(S(=O)(=O)Cc2ccccc2)CC1 here?
The Potency was inconclusive [inhibitor, single point].

With Cc1ccc(CN(C(=O)Cn2nnc3ccccc32)C(C(=O)NCc2ccco2)c2cccs2)cc1 (configuration not stated) as the compound, how does the “activity, negative = inhibition” value read?
Its value is inactive: 17%.

Which Potency does the source give for C[C@@]12C(=O)OC(=O)[C@]1(C)[C@H]1CC[C@@H]2O1 here?
The Potency was active: 5.01 µM.

For O=C(O)CCC(=O)N1CCC[C@H]1C(=O)O, which Potency is on record?
Its Potency is inconclusive [inhibitor, single point].

With O=C(COc1ccccc1)OCc1cc2ccccc2[nH]c1=O as the compound, how does the Potency read?
The Potency was inconclusive [inhibitor, single point].

For O=[N+]([O-])c1cccc2c(Br)[nH]nc12, which Potency is on record?
Its Potency is inconclusive [inhibitor, partial curve].

Which “activity, negative = inhibition” value does the source give for CCOC(=O)N1CCC(NC(=O)c2cnn3c(C(F)(F)F)cc(-c4cccc(OC)c4)nc23)CC1 here?
Its value is inactive: -6.41%.

With COc1cc(C(=O)OCC(=O)c2cc(C)n(C)c2C)cc(OC)c1OC as the compound, how does the Potency read?
Its Potency is inconclusive [inhibitor, single point].

With Cc1ccc2cc(COC(=O)c3ccncc3)c(=O)[nH]c2c1 as the compound, how does the Potency read?
Its Potency is inconclusive [inhibitor, partial curve].

Which Potency does the source give for COC(=O)c1cc(OC)c(OC)cc1N=CC1=C(O)CC(C)(C)CC1=O here?
Its Potency is inconclusive [inhibitor, single point].

With O=C(c1cc2ccccc2oc1=O)N(Cc1ccc2c(c1)OCO2)Cc1ccco1 as the compound, how does the Potency read?
The Potency was inconclusive [inhibitor, partial curve].

For CC1=C(C(=O)OC2CCCCCCC2)C(c2cccc(O)c2)NC(=O)N1 (configuration not stated), which Potency is on record?
Its Potency is inconclusive [inhibitor, single point].

With Cc1ccccc1Nc1nnc(SCC(=O)NC(=O)NCc2ccco2)s1 as the compound, how does the Potency read?
The Potency was inconclusive [inhibitor, single point].

With COc1ccc(S(=O)(=O)N(C)CC(=O)Nc2ccccc2SC)cc1Cl as the compound, how does the Potency read?
Its Potency is inconclusive [inhibitor, partial curve].

With CCC(C(=O)N1CCN(c2cccc(Cl)c2)CC1)c1ccccc1 (configuration not stated) as the compound, how does the Potency read?
The Potency was inconclusive [inhibitor, single point].

Which “activity, negative = inhibition” value does the source give for Clc1cccc(Cl)c1Cn1cnc2c(N3CCCCCC3)ncnc21 here?
The value was inactive: -0.799%.

With CC(C)Cn1c(N)c(C(=O)COC(=O)c2cc(C(F)(F)F)nc3ccccc23)c(=O)n(C)c1=O as the compound, how does the Potency read?
The Potency was inconclusive [inhibitor, single point].

For CC(C)(C)c1ccccc1NC(=O)c1ccco1, which “activity, negative = inhibition” value is on record?
The value was inactive: -8.82%.

Which Potency does the source give for CC1CCc2sc3nc(NCc4ccco4)n4ncnc4c3c2C1 (configuration not stated) here?
The Potency was inconclusive [inhibitor, single point].

Which Potency does the source give for COc1ccc(CNc2ncnc3ccc(-c4cccc(NS(C)(=O)=O)c4)cc23)c(OC)c1 here?
The Potency was inconclusive [inhibitor, full curve].

For COC(=O)CSc1nc2c(c(=O)[nH]c(=O)n2C)n1CCC(C)C, which Potency is on record?
The Potency was inconclusive [inhibitor, full curve, poor fit].

Which “activity, negative = inhibition” value does the source give for CCOC(=O)c1c(C2COc3ccccc3O2)csc1NC(=O)c1ccco1 (configuration not stated) here?
The value was inactive: 10.7%.

Which “activity, negative = inhibition” value does the source give for COc1ccc(N2CCN(Cc3cc(=O)oc4c3ccc3ccccc34)CC2)cc1 here?
The value was inactive: -9.85%.

With COc1ccc(NS(=O)(=O)c2cc(C)ccc2NC(=O)c2cc(C)oc2C)cc1 as the compound, how does the Potency read?
The Potency was inconclusive [inhibitor, single point].

With CC/C=C/C/C=C/C/C=C/CCCCCCCC(=O)OCC as the compound, how does the “activity, negative = inhibition” value read?
The value was inactive: 26%.

Which Potency does the source give for CCOC(=O)c1ccccc1NC(=O)c1cc(S(=O)(=O)N2CCOCC2)ccc1F here?
Its Potency is inconclusive [inhibitor, partial curve].

Which Potency does the source give for COc1ccccc1OCCOc1ccc(/C=N/n2cnnc2)cc1 here?
Its Potency is inconclusive [inhibitor, partial curve].

For CCN1CCN(CCCOc2ccc(-c3ccccc3)cc2)CC1, which Potency is on record?
Its Potency is inconclusive [inhibitor, single point].

Which “activity, negative = inhibition” value does the source give for CN(Cc1ccco1)c1ncncc1-c1ccccc1Cl here?
Its value is inactive: -8.33%.

With COc1ccc(C2=NOC(C(=O)Nc3ccc(C)cc3)C2)cc1OC (configuration not stated) as the compound, how does the Potency read?
Its Potency is inconclusive [inhibitor, full curve, poor fit].

For COc1ccc(S(=O)(=O)Nc2ccccn2)cc1OC, which Potency is on record?
Its Potency is inconclusive [inhibitor, full curve, poor fit].

For O=[N+]([O-])c1ccc(NN=C2c3ccccc3Cc3ccccc32)c([N+](=O)[O-])c1, which activity, negative = inhibition is on record?
The activity, negative = inhibition was inactive: -15% [at 11.5 µM].

For Cn1c(C(=O)N2COCC2(C)C)cc2c(=O)n3ccccc3nc21, which “activity, negative = inhibition” value is on record?
Its value is inactive: 13.1%.

For O=C(NCc1ccc2c(c1)OCO2)c1cccc(C(=O)NCc2ccc3c(c2)OCO3)c1, which Potency is on record?
The Potency was inconclusive [inhibitor, single point].

For CCOC(=O)C(CC)n1cnc2c(cnn2-c2ccc(Cl)cc2)c1=O (configuration not stated), which Potency is on record?
The Potency was inconclusive [inhibitor, single point].

For O=C(CCn1c(=S)[nH]c2ccccc2c1=O)N1CCN(c2ccccn2)CC1, which Potency is on record?
Its Potency is inconclusive [inhibitor, partial curve].

Which Potency does the source give for Clc1ccccc1-c1ccc2ncnc(NCc3cccnc3)c2c1 here?
The Potency was inconclusive [inhibitor, partial curve].

With COc1ccc(-c2cc(C(=O)NCc3ccccc3)no2)cc1OC as the compound, how does the “activity, negative = inhibition” value read?
Its value is inactive: -1.62%.

For COCCNC(=O)c1ccc2c(c1)ncn2-c1ccc(F)c(F)c1, which Potency is on record?
The Potency was inconclusive [inhibitor, partial curve].

With Clc1ccc(-c2nnc3sc(-c4ccccn4)nn23)cc1 as the compound, how does the “activity, negative = inhibition” value read?
Its value is inactive: 9.94%.

With O=C(CNC(=O)c1ccc(Br)o1)Nc1cccc(-c2cnc3ccccc3n2)c1 as the compound, how does the Potency read?
Its Potency is inconclusive [inhibitor, single point].

For CN(C)c1cc2c(Nc3ccc4c(cnn4Cc4ccccc4)c3)ncnc2cn1, which Potency is on record?
Its Potency is inconclusive [inhibitor, partial curve].
